The whole screen tested about 210,000 compounds, of which about 5,900 (2.8%) were called active. The inconclusive results got no clear call from the source; some entries with a clear call stand among them for comparison. Calls follow the shape of the dose curve; as a rule, active = well fitted activation curve with a large enough effect; inconclusive = small, poorly fitted or top-dose-only effect; inactive = no such curve, though single readings can be large or run the other way. Where the call is inconclusive, the potency comes from a doubtful curve fit.
Experiment: qHTS Assay for Enhancers of SMN2 Splice Variant Expression; also: nearly all actives have a fitted effect of over 55% in size; as to activity change, positive = activation: % of control where 0% means no effect
Settings: HEK293 SMN2-luciferase splicing reporter, luminescence, 30-36 h; activity change, positive = activation: at 46.1 µM (top of the series)
Procedure, shortened: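 qHTS luciferase splicing reporter: luminescence rises when SMN2 exon 7 is included in transfected HEK293 cells. Compound exposure lasted 30-36 h at 37C, with 4.5 mM final sodium butyrate as control, followed by a ONE-Glo read.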
Potency is read from the fitted curve at half-maximal effect; tags tell the direction and shape of the fitted curve.

| Structure (SMILES) | Potency | activity change, positive = activation |
| --- | --- | --- |
| O=C(Nc1ccc(C(F)(F)F)cc1)c1ccccc1Br | inconclusive: 35.5 µM [activator, single point] |  |
| COc1ccc(NC(=O)c2sccc2SCC#N)cc1 | inconclusive: 11.2 µM [activator, single point] |  |
| COc1ccc(NC(=O)c2cccs2)cc1O | inconclusive: 10 µM [activator, partial curve, poor fit] |  |
| Cc1cc(-c2ccccc2)nc(N2CCC(C(=O)NC(C)C)CC2)n1 | inconclusive: 6.31 µM [activator, partial curve, poor fit] |  |
| CCOC(=O)N1CCN(S(=O)(=O)c2ccc(OC)c3ccccc23)CC1 | inconclusive: 5.62 µM [activator, single point] |  |
| Cc1cc(OC(C)C(=O)Nc2sc3c(c2C(N)=O)CCCC3)ccc1Cl (configuration not stated) | inconclusive: 0.398 µM [activator, partial curve, poor fit] |  |
| COC(=O)C(C)N(C#N)c1nc(C)nc(C)n1 (configuration not stated) | inconclusive: 20 µM [activator, partial curve, poor fit] |  |
| Cc1cc(OCC(=O)N(Cc2ccc(N(C)C)cc2)CC2CCCO2)ccc1Cl (configuration not stated) |  | inactive: 4.55% |
| O=C(Nc1ccccc1)NC1CCCCC1 | inconclusive: 7.94 µM [activator, partial curve] |  |
| COc1cccc(-c2nc(S(=O)(=O)c3ccc(C)cc3)c(N3CCCCC3)o2)c1 |  | inactive: 2.29% |
| COC(=O)C1=C(C(=O)OC)[C@@H]2N(C)c3ccccc3[C@@]23C[C@@H](CO)N(C(=O)c2cc(C)oc2C)C3=N1 | inconclusive: 0.178 µM [activator, full curve, poor fit] |  |
| COC(=O)c1ccc(C(=O)OC)c(NC(=O)c2ccc(-c3ccccc3)s2)c1 | inconclusive: 0.0251 µM [activator, full curve] |  |
| CC(=O)Nc1c(C)ccc2nsnc12 |  | inactive: 10.1% |
| CC(C)C(=O)Nc1sc2c(c1C#N)CCCCC2 |  | inactive: 12.5% |
| CC[C@H]1[C@@H]2C=C[C@@H]3[C@H]4C/C=C\C(=O)NCCC[C@@H]5NC(=O)C(=C5O)C(=O)CC[C@@H]4C[C@@H]3[C@H]2C[C@H]1C |  | inactive: -68.4% |
| Cc1cc(NC(=O)NC2(C(F)(F)F)Oc3ccc(Cl)cc3O2)no1 (configuration not stated) | inconclusive: 17.8 µM [activator, partial curve, poor fit] |  |
| CC(=O)N(C(C)=O)c1c(N2CCOCC2)c2ccccc2oc1=O | inconclusive: 35.5 µM [activator, single point] |  |
| COc1ccc(/C(N)=N/OC(=O)Cc2ccc(C)cc2)cc1 |  | inactive: 11.8% |
| Cc1ccc(CN2CCN(CC(=O)N=Nc3c(O)[nH]c4ccccc34)CC2)cc1 |  | inactive: -22.1% |
| O=C(O)Cc1ccc(NCc2ccccc2Cl)cc1 | inconclusive: 0.631 µM [activator, partial curve, poor fit] |  |
| COc1cc(CNC(=O)c2cccc(COc3ccc(Cl)cc3)c2)cc(OC)c1 | active: 2.51 µM |  |
| O=c1oc2ccc3ccccc3c2cc1-c1nnc(Nc2ccc(F)cc2)s1 |  | inactive: 1.07% |
| CCN(CC(=O)NC)S(=O)(=O)c1ccc(Br)cc1 | inconclusive: 0.0126 µM [activator, full curve] |  |
| NNC(=O)CNC(=O)CNS(=O)(=O)c1ccccc1 |  | inactive: 0.788% |

| Structure (SMILES) | Potency | activity change, positive = activation |
| --- | --- | --- |
| Cc1ccc(NC(=O)c2sccc2C)cc1S(=O)(=O)N(C)C |  | inactive: 20% |
| CCOC(=O)Nc1ccc(NS(=O)(=O)c2ccc(C)cc2)cc1 | inconclusive: 31.6 µM [activator, single point] |  |
| COC(=O)CCc1nc2ccccc2[nH]c1=O | inconclusive: 0.562 µM [activator, partial curve, poor fit] |  |
| COc1ccc(NC(=O)CSc2nnc(C)n2Cc2ccccc2)cc1 |  | inactive: -11.2% |
| Cc1ccc2nc3n(c(=O)c2c1)CCC3 | inconclusive: 0.0045 µM [activator, full curve, poor fit] |  |
| Fc1ccc(CSc2nc3ccccc3[nH]2)c2ccccc12 |  | inactive: -4.68% |
| CC1C(=O)CC(c2ccccc2)NC1c1ccccc1 (configuration not stated) | inconclusive: 35.5 µM [activator, single point] |  |
| Nc1ccccc1Nc1cc(-c2ccccc2)[nH]n1 | inconclusive: 35.5 µM [activator, single point] |  |
| O=C(CSc1nnc(CNc2ccccc2)o1)c1ccc2c(c1)OCCO2 | inconclusive: 1.58 µM [activator, full curve, poor fit] |  |
| COc1cc(OC)cc(C(=O)Nc2ccc(-n3cnnn3)c(C)c2)c1 |  | inactive: 23.1% |
| COC(=O)c1ccc2c(=O)[nH]c(CSc3nc(-c4ccc(F)cc4)cs3)nc2c1 | inconclusive: 0.794 µM [activator, full curve, poor fit] |  |
| COCC(=O)Nc1ccc(C(C)C)cc1 | inconclusive: 4.47 µM [activator, partial curve] |  |
| Cc1cccc(C(=O)NC(=S)Nc2ccc(N3CCOCC3)cc2)c1 |  | inactive: -4.88% |
| COc1ccc(C(=O)N=c2sc3c(C)ccc(OC)c3n2C)cc1 | active: 3.98 µM |  |
| COc1ccc(Cc2c(O)nc[nH]c2=O)cc1 |  | inactive: 0.792% |
| CN(C)CCCOC1C(C(O)CO)OC2OC(C)(C)O[C@@H]21 (some centres not stated) |  | inactive: 2.7% |
| CCc1cc2c(CN3CCN(C)CC3)cc(=O)oc2cc1O | inconclusive: 0.316 µM [activator, full curve, poor fit] |  |
| Cc1cccc(OCC(=O)Nc2sc3c(c2C#N)CCC3)c1 | inconclusive: 25.1 µM [activator, single point] |  |
| N#Cc1cc(Oc2cccnc2)c(Oc2cccnc2)cc1C#N | inconclusive: 0.0045 µM [activator, full curve, poor fit] |  |
| Cc1ccc(C(=O)Nc2nc3nc(-c4ccccc4)cc(=O)n3[nH]2)cc1 | inconclusive: 7.94 µM [activator, partial curve] |  |
| Cc1nc2oc3ccc(F)cc3c(=O)c2cc1C(=O)NC(C)(C)C | inconclusive: 17.8 µM [activator, single point] |  |
| CCOC(=O)c1oc2ccc(Br)cc2c1NC(=O)CN1CCN(C)CC1 | inconclusive: 7.08 µM [activator, full curve] |  |
| Cn1c(=O)c2c(nc(N/N=C/c3ccc(OC(=O)c4ccco4)cc3)n2Cc2ccccc2Cl)n(C)c1=O |  | inactive: -22.7% |
